# Laboratory results taken from publication PMC10668032.
# The list shows a part of the results. At the low end of the ranking, values are background and their order means little.
# Target: SIX1 homeodomain (reference allele) (UniProt Q15475)
# Assay: universal protein binding microarray
# Details: Universal all-10-mer PBM (8x60K, AMADID 030236), 300 nM GST-tagged protein, Alexa Fluor 488 anti-GST; buffer, salt, pH and temperature not stated; high values mean tight binding; most listed sequences are background and not binding sites; double strand, one strand shown
row,Sequence,binding signal
1,AAGCTGAA,-0.17 E-score
2,CGATGTAC,0.0777 E-score
3,CTAATAGA,0.0898 E-score
4,TAGGTTAA,0.00465 E-score
5,CAAGAGTA,0.0551 E-score
6,CCTTTGCC,-0.22 E-score
7,CTCTAAGA,-0.0514 E-score
8,AGGGCCAA,-0.261 E-score
9,ACCAGGTC,-0.136 E-score
10,CTACGCAA,-0.167 E-score
11,AGTCTGTC,-0.219 E-score
12,CGGACAAA,-0.23 E-score
13,CCCATCCG,0.191 E-score
14,TGCGGACA,0.00786 E-score
15,ACCGTCAA,-0.175 E-score
16,ATCCGTCG,0.239 E-score
17,TCGGTCCA,-0.164 E-score
18,CAAACTCA,-0.236 E-score
19,GCGTGGAA,-0.13 E-score
20,CGAATGTC,-0.124 E-score
21,CCGATAAC,0.239 E-score
22,CAAAGAAC,-0.255 E-score
23,CTTACTAA,-0.102 E-score
24,ACCAACCT,-0.212 E-score

row,Sequence,binding signal
1,TACCCAGA,0.263 E-score
2,AAAGAGTA,-0.0122 E-score
3,ACCTTAGT,-0.0479 E-score
4,GTGAAGGA,-0.0092 E-score
5,CGATGAAC,-0.0238 E-score
6,AAAGTGGT,-0.0188 E-score
7,AGAGGCGC,-0.166 E-score
8,AGACAGAT,0.177 E-score
9,AAACTAGA,0.116 E-score
10,AGTTCGTG,-0.0892 E-score
11,TCGACTAA,0.0421 E-score
12,CCAATTAC,-0.173 E-score
13,GAATCACA,-0.0516 E-score
14,AGCGCTTA,-0.0208 E-score
15,CGTGTGTA,0.126 E-score
16,GAACATTC,-0.253 E-score
17,GTTTAGGA,-0.0944 E-score
18,AACTGGAT,0.172 E-score
19,GGCCGTCA,-0.16 E-score
20,ACGTAGGA,0.0269 E-score
21,AAGAAATG,-0.229 E-score
22,GGATCACA,0.436 E-score
23,CCGGGGCA,-0.0827 E-score
24,CTACTTTC,-0.195 E-score

row,Sequence,binding signal
1,CCCTCCGC,0.00851 E-score
2,AACCCTTG,0.0654 E-score
3,GAGTGATA,0.447 E-score
4,CACTCCGG,0.195 E-score
5,AGCAGTTG,-0.139 E-score
6,CGCTGACG,-0.311 E-score
7,AAGAGATA,0.235 E-score
8,ACGCTCCG,-0.261 E-score
9,CATCGAGG,0.0206 E-score
10,GACGAACA,-0.227 E-score
11,TATCTGGA,0.309 E-score
12,ATGCAGAG,-0.0626 E-score
13,AGTGGGTC,-0.073 E-score
14,AGGGGCCA,-0.0959 E-score
15,AACACAAA,-0.114 E-score
16,AAGGCATT,-0.0818 E-score
17,GAACATCC,-0.0366 E-score
18,GGCGAGAA,-0.0165 E-score
19,CCTTCTCG,0.111 E-score
20,CGGCAACC,-0.111 E-score
21,ACTTGTAT,0.246 E-score
22,GAATACCC,0.368 E-score
23,CTTAATTC,-0.0274 E-score
24,TAGCATAA,-0.0723 E-score

row,Sequence,binding signal
1,GTTACTAA,-0.105 E-score
2,AATCGTCA,-0.0123 E-score
3,CCGGAGAA,-0.0972 E-score
4,GGAGACGA,0.149 E-score
5,GCTGATCA,0.198 E-score
6,CTTTACGC,-0.158 E-score
7,GACTTTGA,-0.193 E-score
8,CGCCAAGA,-0.154 E-score
9,CGTGTGAG,0.0774 E-score
10,CAAGTAGC,-0.221 E-score
11,CGTTTTGC,-0.212 E-score
12,CATCGTAC,-0.0388 E-score
13,AAACTTTG,-0.263 E-score
14,AATCTCTG,-0.0279 E-score
15,AAACCCAG,0.0877 E-score
16,CGACACCG,0.427 E-score
17,GATTATGA,0.205 E-score
18,AGTAGTAA,-0.145 E-score
19,CCCGCACC,0.0198 E-score
20,AGACTATG,-0.00755 E-score
21,ATGGGGCG,0.14 E-score
22,CCTAAGCA,0.0158 E-score
